# Data reported in the supplement of paper PMC10670038.
# “And” between values parts separate entries of the source, which are not always exact repeats. Equal values may be shown once. Where a name gives a salt, the structure may show the parent alone. ± gives the standard deviation of the averaged measurements. The full ranking holds about 2,000 compounds; the median of “relative cell viability vs DMSO, compound alone” is about 1.1, and the lowest 2% start at about 0.29. Some of the results follow.
# Tested on: TE10
# Assay: relative cell viability vs DMSO, compound alone (fraction); TE10 is an esophageal squamous carcinoma line; higher = less cytotoxic
# Details: 2 µM; 48 h
# Description: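 TE10 ESCC cells (1,000/well, 384-well plates) were treated with Selleck bioactive library compounds at 2 uM alone for 48 h. Viability was read by CellTiter-Glo and expressed relative to DMSO wells. Two technical replicates (A, B).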
row,Structure (SMILES),relative cell viability
1,CCOC(=O)[C@H](CCc1ccccc1)N[C@@H](C)C(=O)N1Cc2ccccc2C[C@H]1C(=O)O [Quinapril HCl],1.01 ± 0.053
2,NC1(C(=O)N[C@@H](CCO)c2ccc(Cl)cc2)CCN(c2ncnc3[nH]ccc23)CC1,0.821 ± 0.07
3,CC(CCc1ccccc1)NCC(O)c1ccc(O)c(C(N)=O)c1 (stereo not drawn) [Labetalol HCl],1.08 ± 0.012
4,Cc1cn([C@H]2O[C@@H](CO)[C@H](O)[C@H]2F)c(=O)[nH]c1=O [Clevudine],0.979 ± 0.045
5,Cc1cc(NC(=O)Nc2ccc(N(C)C)cc2)c2cc(F)cc(F)c2n1,1.04 ± 0.034
6,Cc1onc(-c2c(Cl)cccc2Cl)c1C(=O)N[C@@H]1C(=O)N2[C@@H]1SC(C)(C)[C@@H]2C(=O)O [Dicloxacillin Sodium],0.942 ± 0.14
7,Cn1cc(-c2ccc3ncc(Cc4ccc5ncccc5c4)n3n2)cn1,1.13 ± 0.055
8,CC1C(=O)OC2C(O)C34C5CC(C(C)(C)C)C36C(OC(=O)C6O)OC4(C(=O)O5)C12O (stereo not drawn) [Ginkgolide B],1.19 ± 0.045
9,CN(C)/N=N/c1[nH]cnc1C(N)=O [Dacarbazine],1.17 ± 0.036
10,"CC(C)OC(=O)[C@H](C)N[P@](=O)(OC[C@H]1O[C@@H](n2ccc(=O)[nH]c2=O)[C@](C)(F)[C@@H]1O)Oc1ccccc1 [Sofosbuvir (PSI-7977, GS-7977)]",1.09 ± 0.097
11,Nc1nc2c(ncn2[C@@H]2O[C@H](CO)[C@@H](O)[C@H]2O)c(=O)[nH]1 [Guanosine],1.06 ± 0.032
12,CC1(C)S[C@@H]2[C@H](NC(=O)[C@H](NC(=O)N3CCNC3=O)c3ccccc3)C(=O)N2[C@H]1C(=O)O [Azlocillin sodium salt],1.09 ± 0.026
13,O=C1[C@H](Cc2ccc(O)cc2)N2C(=O)CCN(C(=O)NCc3ccccc3)[C@H]2CN1Cc1cccc2ccccc12,0.723 ± 0.061
14,CCn1c2ccccc2c2cc(Nc3ccnc(NCCCN4CCOCC4)n3)ccc21,1.2 ± 0.076
15,CNC(=O)c1cccc(-c2ccc3c(N4CCOC[C@@H]4C)nc(N4CCOC[C@@H]4C)nc3n2)c1,0.528 ± 0.03
16,C=CCNC(N)=S [Allylthiourea],1.17 ± 0.032
17,CN(C)CCOC(C)(c1ccccc1)c1ccccn1 (stereo not drawn) [Doxylamine Succinate],1.14 ± 0.021
18,COc1cccc(-c2cc(=O)c3ccccc3o2)c1N,1.01 ± 0.071
19,CC(C)(C#N)c1cc(Cn2cncn2)cc(C(C)(C)C#N)c1 [Anastrozole],1.12 ± 0.061
20,COc1cc2nccc(Oc3ccc(NC(=O)Nc4cc(C)on4)c(Cl)c3)c2cc1OC [Tivozanib (AV-951)],1.18 ± 0.074
21,C[C@@H](O)[C@H]1C(=O)N2C(C(=O)O)=C(S[C@@H]3CN[C@H](CNS(N)(=O)=O)C3)[C@H](C)[C@H]12 [Doripenem Hydrate],1.12 ± 0.095
22,O=C(Nc1ccccc1C(=O)NC1CCCCNC1=O)c1cc2ccccc2s1 (stereo not drawn),0.924 ± 0.17
23,Nc1ccn([C@H]2CC[C@@H](CO)O2)c(=O)n1 [Zalcitabine],1.04 ± 0.029
24,CCc1cc(Nc2nccc(-c3c(-c4ccc(OC)c(C(=O)Nc5c(F)cccc5F)c4)nc4ccccn34)n2)c(OC)cc1N1CCC(N2CCN(S(C)(=O)=O)CC2)CC1,1.2 ± 0.095
25,CC(S)C(=O)NCC(=O)O (stereo not drawn) [Tiopronin],1.16 ± 0.015

row,Structure (SMILES),relative cell viability
1,CNCc1ccc(-c2cc(-c3nc(-c4ccc(S(=O)(=O)C(C)C)cc4)cnc3N)on2)cc1,0.881 ± 0.054
2,CN1CCN(CCCN2c3ccccc3Sc3ccc(C(F)(F)F)cc32)CC1 [Trifluoperazine 2HCl],1.02 ± 0.028
3,O=C(NCc1ccccc1)c1csc(Nc2ccncn2)n1 [Thiazovivin],1.23 ± 0.048
4,CNC[C@H](O)c1ccc(O)c(O)c1 [Epinephrine HCl],1.115 ± 0.005
5,CNC[C@H](O)c1ccc(O)c(O)c1 [Epinephrine Bitartrate],1.12 ± 0.13
6,CN(CC(=O)N(Cc1ccc(C2CCCCC2)cc1)c1ccc(C(=O)O)cc1)S(=O)(=O)c1c(F)c(F)c(F)c(F)c1F,1.01 ± 0.013
7,OC(CNCC(O)C1CCc2cc(F)ccc2O1)C1CCc2cc(F)ccc2O1 (stereo not drawn) [Nebivolol],0.9529 ± 0.0084
8,O=C(CCc1ccc(O)cc1)c1c(O)cc(O)cc1O [Phloretin],1.202 ± 0.001
9,CC[C@H](C)[C@H](N)C1=N[C@H](C(=O)N[C@@H](CC(C)C)C(=O)N[C@H](CCC(=O)O)C(=O)N[C@H](C(=O)N[C@H]2CCCCNC(=O)[C@H](CC(N)=O)NC(=O)[C@@H](CC(=O)O)NC(=O)[C@H](Cc3cnc[nH]3)NC(=O)[C@@H](Cc3ccccc3)NC(=O)[C@H]([C@@H](C)CC)NC(=O)[C@@H](CCCN)NC2=O)[C@@H](C)CC)CS1 [Bacitracin],1.14 ± 0.048
10,O=C(O)c1cc(/N=N/c2ccc(O)c(C(=O)O)c2)ccc1O [Olsalazine Sodium],1.12 ± 0.12
11,O=C(Nc1ccccc1-c1cn2c(CN3CCNCC3)csc2n1)c1cnc2ccccc2n1,1.18 ± 0.1
12,CNC(=O)c1cc(Oc2ccc(NC(=O)Nc3ccc(Cl)c(C(F)(F)F)c3)c(F)c2)ccn1 [Regorafenib (BAY 73-4506)],1.15 ± 0.043
13,CC(C)(C)NCC(O)COc1cccc2c1CCC(=O)N2 (stereo not drawn) [Carteolol HCl],1.09 ± 0.15
14,CN(C)CC(=O)Nc1ccc2[nH]c(=O)c3ccccc3c2c1,1.11 and 1.05
15,CC(C)C[C@H](NC(=O)[C@@H](NC(=O)c1cccc(-c2ccccc2)n1)[C@@H](C)O)B(O)O,0.0932 ± 0.003
16,OC[C@H]1O[C@H](O[C@]2(CCl)O[C@H](CCl)[C@@H](O)[C@@H]2O)[C@H](O)[C@@H](O)[C@H]1Cl [Sucralose],1.107 ± 0.0098
17,CNC(=O)c1cc(Oc2ccc(NC(=O)Nc3cc(C(C)(C)C)nn3-c3ccc4ncccc4c3)c(F)c2)ccn1 [DCC-2036 (Rebastinib)],1.05 ± 0.093
18,COc1ccc2c(c1)c(CC(=O)O)c(C)n2C(=O)c1ccc(Cl)cc1 [Indomethacin],1.08 ± 0.039
19,CN1CCC(=C2c3ccccc3CCc3cccnc32)CC1 [Azatadine dimaleate],1.07 ± 0.013
20,Nc1nc2ccc(OC(F)(F)F)cc2s1 [Riluzole],1.14 ± 0.075
21,COc1cc(C=CC(=O)N2CCC=CC2=O)cc(OC)c1OC [Piperlongumine],0.948 ± 0.024
22,O=C(C1CCCCC1)N1CC(=O)N2CCc3ccccc3C2C1 (stereo not drawn) [Praziquantel],0.9499 ± 0.0021
23,C[C@@H]1CCO[C@H]2Cn3cc(C(=O)NCc4ccc(F)cc4F)c(=O)c(O)c3C(=O)N12,1.16 ± 0.064
24,C[C@]1(O)C[C@@H](c2nc(-c3ccc4ccc(-c5ccccc5)nc4c3)c3c(N)nccn32)C1 [OSI-906 (Linsitinib)],1.202 ± 0.0014
25,C[C@H]1O[C@@H](O[C@H]2[C@@H](O)C[C@H](O[C@H]3[C@@H](O)C[C@H](O[C@H]4CC[C@@]5(C)[C@H](CC[C@@H]6[C@@H]5C[C@@H](O)[C@]5(C)[C@@H](C7=CC(=O)OC7)CC[C@]65O)C4)O[C@@H]3C)O[C@@H]2C)C[C@H](O)[C@@H]1O [Digoxin],0.603 ± 0.013

row,Structure (SMILES),relative cell viability
1,Cc1c(OCC(F)(F)F)ccnc1C[S@@+]([O-])c1nc2ccccc2[nH]1 [Dexlansoprazole],1.06 ± 0.061
2,CC[C@H]1OC(=O)[C@H](C)[C@@H](O[C@H]2C[C@@](C)(OC)[C@@H](O)[C@H](C)O2)[C@H](C)[C@@H](O[C@@H]2O[C@H](C)C[C@H](N(C)C)[C@H]2O)[C@](C)(O)C[C@@H](C)C(=O)[C@H](C)[C@H]2OC(=O)O[C@@]21C [Erythromycin Cyclocarbonate],1.12 ± 0.073
3,Cc1cc(O)c2c(c1)C(=O)c1cccc(O)c1C2=O [Chrysophanic Acid],0.955 ± 0.042
4,NC(=O)c1cn(Cc2c(F)cccc2F)nn1 [Rufinamide],1.13 ± 0.12
5,CC(C(=O)O)c1ccc(-c2ccccc2)c(F)c1 (stereo not drawn) [Flurbiprofen],0.958 ± 0.057
6,NC(=O)c1ccc(-c2nc(-c3ccc4c(c3)OCCO4)c(-c3ccccn3)[nH]2)cc1,1.02 ± 0.052
7,O=C1NC(=NCc2cccs2)S/C1=C\c1ccc2ncccc2c1,1.03 ± 0.012
8,Cc1ccccc1C(=O)Nc1ccc(C(=O)N2CCCC(O)c3cc(Cl)ccc32)c(C)c1 (stereo not drawn) [Tolvaptan],0.996 ± 0.025
9,CN(C)C(=O)C(CCN1CCC(O)(c2ccc(Cl)cc2)CC1)(c1ccccc1)c1ccccc1 [Loperamide HCl],0.99852 ± 0.00021
10,C=CCc1cccc(/C=N/NC(=O)CN2CCN(Cc3ccccc3)CC2)c1O,1.075 ± 0.0097
11,CC(NC(=O)C(Cc1ccccc1)NC(=O)OCc1ccccc1)C(=O)CF (stereo not drawn),1.14 ± 0.064
12,CC(C(=O)O)c1ccc2c(c1)[nH]c1ccc(Cl)cc12 (stereo not drawn) [Carprofen],0.964 ± 0.032
13,O=C(Nc1cccc(C(F)(F)F)c1)Nc1cc(S(=O)(=O)NC2CC2)ccc1-c1ccsc1,0.982 ± 0.031
14,O=C1c2c(O)cccc2C([C@@H]2O[C@H](CO)[C@@H](O)[C@H](O)[C@H]2O)c2cc(CO)cc(O)c21 (stereo partly drawn) [Aloin],1.09 ± 0.025
15,Cc1cc(/C=C/C#N)cc(C)c1Nc1ccnc(Nc2ccc(C#N)cc2)n1 [Rilpivirine],1.1 ± 0.016
16,C=C1C(=O)[C@]23[C@H](O)[C@H]1CC[C@H]2[C@@]12CO[C@]3(O)[C@@H](O)[C@@H]1C(C)(C)CC[C@@H]2O [Oridonin],1.1 ± 0.034
17,CCOc1cc2ncc(C#N)c(Nc3ccc(F)c(Cl)c3)c2cc1NC(=O)/C=C/CN(C)C [Pelitinib (EKB-569)],0.677 ± 0.13
18,Cc1c(N(C)C)c(=O)n(-c2ccccc2)n1C [Amidopyrine],1.14 ± 0.022
19,CCN(CC)CCNC(=O)c1c(C)[nH]c(/C=C2\C(=O)Nc3ccc(F)cc32)c1C [Sunitinib],1 ± 0.095
20,CCN(CC)CCNC(=O)c1c(C)[nH]c(/C=C2\C(=O)Nc3ccc(F)cc32)c1C [Sunitinib Malate],1.11 ± 0.037
21,COc1ccc(/C=C/C(=O)Nc2ccccc2C(=O)O)cc1OC [Tranilast],1.25 ± 0.077
22,COc1ccc(C2=NC(c3ccc(Cl)cc3)C(c3ccc(Cl)cc3)N2C(=O)N2CCNC(=O)C2)c(OC(C)C)c1 (stereo not drawn) [Nutlin-3b],1.2 ± 0.044
23,COc1ccc(C2=NC(c3ccc(Cl)cc3)C(c3ccc(Cl)cc3)N2C(=O)N2CCNC(=O)C2)c(OC(C)C)c1 (stereo not drawn) [Nutlin-3a],1.16 ± 0.0017
